Test results from paper PMC11335210.
No constants are given. Whether binding was seen depends on the method and setting. Binding seen in cells or lysates may run through a third protein. Some entries that bind do so weakly or less than the wild type. Sequences can lack the tags named with a protein.

T1: human PKP4 N-terminally tagged with EGFP (EGFP-PKP4-WT) (human) (UniProt Q99569)
T1 sequence: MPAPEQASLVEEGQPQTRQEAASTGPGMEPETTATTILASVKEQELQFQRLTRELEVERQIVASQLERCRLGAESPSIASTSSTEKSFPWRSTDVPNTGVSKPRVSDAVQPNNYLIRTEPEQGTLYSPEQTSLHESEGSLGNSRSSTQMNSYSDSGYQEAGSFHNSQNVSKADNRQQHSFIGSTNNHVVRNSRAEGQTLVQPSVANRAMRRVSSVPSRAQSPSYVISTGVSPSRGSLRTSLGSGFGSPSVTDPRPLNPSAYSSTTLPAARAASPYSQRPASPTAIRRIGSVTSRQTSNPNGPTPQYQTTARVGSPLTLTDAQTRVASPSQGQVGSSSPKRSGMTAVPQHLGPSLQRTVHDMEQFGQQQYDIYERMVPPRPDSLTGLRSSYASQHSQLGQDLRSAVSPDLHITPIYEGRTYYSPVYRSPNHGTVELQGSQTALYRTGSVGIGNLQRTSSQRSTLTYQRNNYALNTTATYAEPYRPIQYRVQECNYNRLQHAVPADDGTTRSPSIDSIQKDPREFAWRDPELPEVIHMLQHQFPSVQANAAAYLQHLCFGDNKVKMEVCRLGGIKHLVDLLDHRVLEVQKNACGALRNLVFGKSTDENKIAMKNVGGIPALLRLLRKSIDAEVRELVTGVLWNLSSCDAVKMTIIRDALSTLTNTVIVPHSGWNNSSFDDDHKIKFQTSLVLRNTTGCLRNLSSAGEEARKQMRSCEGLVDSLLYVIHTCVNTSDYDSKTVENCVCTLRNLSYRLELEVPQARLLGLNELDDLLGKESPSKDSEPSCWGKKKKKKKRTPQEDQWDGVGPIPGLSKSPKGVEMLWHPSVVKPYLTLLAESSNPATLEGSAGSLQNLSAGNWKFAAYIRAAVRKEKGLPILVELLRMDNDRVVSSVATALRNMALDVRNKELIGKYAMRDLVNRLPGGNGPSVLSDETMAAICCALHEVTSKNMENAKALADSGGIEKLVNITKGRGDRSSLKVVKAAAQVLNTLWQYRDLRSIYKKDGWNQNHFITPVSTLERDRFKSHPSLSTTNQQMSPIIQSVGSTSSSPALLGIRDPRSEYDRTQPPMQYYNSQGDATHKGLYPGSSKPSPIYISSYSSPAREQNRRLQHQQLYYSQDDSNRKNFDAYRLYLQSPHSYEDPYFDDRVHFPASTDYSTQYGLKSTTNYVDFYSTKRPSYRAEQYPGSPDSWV


These binders were tested against T1, human PKP4 N-terminally tagged with EGFP (EGFP-PKP4-WT) (human) (assay: co-IP; GFP-Trap Agarose on lysates of PKP4-KO + GFP-PKP4 (Rescue) keratinocytes, WT + GFP cells as control; IP buffer 20 mM Tris-HCl pH 7.5, 137 mM NaCl, 2 mM EDTA, 10% glycerol, 1% NP-40; 1 h at 4 °C; western blot).

binding	Binder
binds	ARHGAP23 (protein, UniProt Q69ZH9 1-1483) MNGVAFCLVGIPPRPEPRPPQLPLGPRDGCSSGRPLPWPGPRTLLLRKSLQDGFGFTLRHFIVYPPESAVHCILKEEENGGRGGGPSPRHRLEPMDTIFVKNVKDGGPAHRAGLRTGDRLVKVNGESIIGKTYSQVIGLIQNSDDTLELSIMPKDEDILQLAYSQDAYLKGNEPYSGEARSIPEPPPLCYPRKTYAPPTRAPAWATMVPEPISALPPDPRSPAAWSDPGSRVPSATRAHLDNSSLGMSQPRPSPGAFPHLPSESRTPRAFPEPGSRVLPSRLECQQALSHWLSNQIPRRAGERRCPAMPPRARSASQDRLEDVTTHHPWPCSTSQDALSQLGQEGWHRARSDDYLSRATRSAEALGPGALVSPRLERCGWASQRPSARTSACPSRDLTQAPPPSGLQGLDDIGYIGYRSYSPSFQRRTGLLHALSFRDSPFGGLPTFSLAQSPASFPPEASEPPRVVRPDPSTRALEPPAEDHRDEVVLRQKPPTGRKVQLTPARQMNLGFGDESPEPEARGERLGRKVAPLATTEDSLASIPFIDEPTSPSIDLQAKHVPASAVVSSAMNSAPVLGTSPSSPTFTFALSRHYSQDCSSIKAGRRSSYLLAITTERSKSCDDGLNTFRDEGRVLRRLPSRVPSLRVLRSFFTDGSLDSWGTSEDADAPSKRHSTSDLSDATFSDIRREGWLYYKQILTKKGKKAGGGLRQWKRVYAVLRARSLSLSKERREPGPAAAGAAAAGAGEDEAAPVCIGSCLVDISYSETKRRHVFRLTTADFCEYLFQAEDRDDMLGWIRAIRENSRAEGEDPGCANQALISKKLNDYRKVSHSSGPKADSSPKGSRGLGGLKSEFLKQTAVRGLRTQEQPPGSKEDSVAAPKTPWGINIIKKNKKAAPRAFGIRLEECQPATENQRVPLIVAACCRIVEARGLESTGIYRVPGNNAVVSSLQEQLNRGPSDINLQDERWQDLNVISSLLKAFFRKLPEPLFTDDKYNDFIEANRIEDSRERMKTLRKLIRDLPGHYYETLKFLVGHLKTIADHSEKNKMEPRNLALVFGPTLVRTSEDNMTDMVTHMPDRYKIVETLIQHSDWFFSDDEDKGERTPVDDKEPQSVPNIEYLLPNIGRTVPPSDPGSDSTTCSSAKSKGSWVPKKEPYAREMLAISFISAVNRKRKKRREARGLGSSTDDDSEQEAHKAAVGTQEPPEGQLPGPAAEEAPGRLSPPTAPDERPAADTRSIVSGYSTLSTMDRSVCSGTGGRRAGAGDEADDERSELSHVETDTEGGAGPGGRLSRRPSFSSHHLMPCDTLARRRLSRSRAEAEGPGAGTARACPRGPEPPGSASSSSQESLRPPAAAPALGSRPSRVEALRLRLRGTADDMLAVRLRRPLSPETRRRRSSWRRHTVVVQSPLTDLNFNEWKELGGGGPQESVGVRPHSDNKDSGLSSLESTKARASSAASLPSGDLGALQGLPQRRSAAARLHQCL
binds	RACGAP1 (protein, UniProt Q9WVM1 1-628) MDTTMVNLWTLFEQLVRRMEIINEGNESIEFIQVVKDFEDFRKKYQRTNQELEKFKDLLLKAETGRSALDVKLKHARNQVDVEIKRRQRAEAECAKLEQQIQLIRDILMCDTSGSIQLSEEQKSALAFLNRGQASSGHAGNNRLSTIDESGSILSDISFDKTDESLDWDSSLVKNFKMKKREKRRSNSRQFIDGPPGPVKKTCSIGSTVDQANESIVAKTTVTVPSDGGPIEAVSTIETLPSWTRSRGKSGPLQPVNSDSALNSRPLEPRTDTDNLGTPQNTGGMRLHDFVSKTVIKPESCVPCGKRIKFGKLSLKCRDCRLVSHPECRDRCPLPCIPPLVGTPVKIGEGMLADFVSQASPMIPAIVVSCVNEIEQRGLTEAGLYRISGCDRTVKELKEKFLKVKTVPLLSKVDDIHVICSLLKDFLRNLKEPLLTFWLSKAFMEAAEITDEDNSTAAMYQAVSELPQANRDTLAFLMIHLQRVSQSPDTKMDIANLAKVFGPTIVAHTVPNPDPVTMFQDIKRQLKVVERLLSLPLEYWNQFMMVDQENIDSQRGNGNSTPRTPDVKVSLLGPVTTPEFQLVKTPLSSSLSQRLYNLSKSTPRFGNKSKSATNLGQQGKFFPAPYLK
binds	ECT2 (epithelial cell transforming 2) (protein, UniProt Q07139 1-913) MADDSVLPSPSEITSLADSSVFDSKVAEMSKENLCLASTSNVDEEMPQVEARVIMVQDAGKQEELLKALKTIKIMEVPVIKIKESCPGKSEEKLIKSIINMEMKVPCVKMDSMEEFESLDSPEFENIFVVTDFQNSVFNDLYKADCRIVGPPVILNCAQRGEPLPFSCRPLYCTSMLNLVLCFTGFRKKEELVKLVTLVHHMGGVIRKECNSKVTHLVANCTQGEKFRVAVSLGTPIMKPEWIYKAWERRNEQCFCAAVDDFRNEFKVPPFQDCILSFLGFSDEEKHSMEEMTEMQGGSYLPVGDERCTHLIVEENTVKDLPFEPSKKLFVVKQEWFWGSIQMDARAGETMYLYEKANTPELKKSVSLLSLSTPNSNRKRRRLKETLAQLSRETDLSPFPPRKRPSAEHSLSIGSLLDISNTPESSIHYGETPKSCAKSSRSSTPVPPKQSARWQVAKELYQTESNYVNILATIIQLFQVPLEEEGQRGGPILAPEEIKTIFGSIPDIFDVHMKIKDDLEDLIANWDESRSIGDIFLKYAKDLVKTYPPFVNFFEMSKEMIIKCEKQKPRFHAFLKINQAKPECGRQSLVELLIRPVQRLPSVALLLNDLKKHTADENPDKSTLEKAIGSLKEVMTHINEDKRKTEAQKQIFDVVYEVDGCPANLLSSHRSLVQRVETVSLGEHPCDRGEQVTLFLFNDCLEIARKRHKVIGTFRSPHDRTRPPASLKHIHLMPLSQIKKVLDIRETEDCHNAFALLVRPPTEQANVLLSFQMTSEELPKESWLKMLCRHVANTICKADAENLMYVADPESFEVNTKDMDSTLSRASRAIKKTSKKVTRAFSFSKTPKRALRMALSSSHSSEGRSPPSSGKLAVSRLSSTSSLAGIPSPSLVSLPSFFERRSHTLSRSTTHLI
binds	ARHGAP24 (protein, UniProt Q8C4V1 1-747) MEERCESTESPQGQGRKNTKCGWLRKQGGFVKTWHTRWFVLKGDQLYYFKDEDETKPLGTIFLHGNKVIEHPCNEENPGKFLFDVVPGGERDRMTANHESYLLMASTQNDMEDWVKSIRRVIWGPFGGGIFGQKLEDTVRYEKRYGNRLAPMLVEQCVDFIRQRGLKEEGLFRLPGQANLVKELQDAFDCGEKPSFDSNTDVHTVASLLKLYLRELPEPVVPYAKYEDFLSCATLLSKEEEAGVKELMKQVKSLPVVNYNLLKYICRFLDEVQSYSGVNKMSAQNLATVFGPNILRPKVEDPLTIMEGTVVVQQLMSVMISKHDRLFPKDTEPQSKPQDGPNSNNNDGHKKATMGQLQNKENNNTKESPVRRCSWDKPESPQRSSVDNGSPTALSGSKTNSPRNSIHKLDISRSPPLMVKKNPAFNKGSGIVTNGSFSSSNAEGVEKPQTTPNGSLQARRTSSLKSSGTKMGTHSVQNGTVRMGILNTDTLGNSLNGRSMSWLPNGYVTLRDNKQKEPAGESGQHNRLSTYDNVHQQFSSMSLDDKHSVDSATWSTSSCEISLPENSNSCRSSTTTCPEQDFYVGNFEDPVLDGPPQDDLSHPGDYENKSDRRSVGGRSSRATSSSDNSETFVGNTSSNHSALHSLVSSLKQEMTKQKIEYESRIKSLEQRNLTLETEMLSLHDELDQERKKFTMIEIKMRNAERAKEDAEKRNDMLQKEMEQFFSTFGDLTVEPRRSERGNTIWIQ
